Assay results reported in PubChem BioAssay AID624417 (National Center for Advancing Translational Sciences (NCATS), 2012).
Several values for one entry are separate records, joined by “and”; a condition that tells them apart may be missing. Equal entries are not always repeated. Out of some 410,000 compounds screened, about 6,400 (1.6%) were called active. This list was built around the results that the source calls inconclusive (neither active nor inactive); the mix of calls is not that of the screen. The call rests on the fitted dose curve; in most records, active means well fitted inhibition curve with a large enough effect; inconclusive means small, poorly fitted or top-dose-only effect; inactive means no such curve, though single readings can be large or run the other way. Where the call is inconclusive, the potency comes from a doubtful curve fit.

biological target: Glucagon-like peptide 1 receptor (Homo sapiens) (UniProt P43220); experiment: qHTS of GLP-1 Receptor Inverse Agonists (Inhibition Mode); details: HEK293 GLP-1R CRE-luciferase, luminescence, 24 h, GLP-1R form is constitutively active; series mostly up to 38.3 µM; further: nearly all actives have a fitted effect of over 55% in size
Chain of UniProt P43220 (P43220 whole entry, looked up): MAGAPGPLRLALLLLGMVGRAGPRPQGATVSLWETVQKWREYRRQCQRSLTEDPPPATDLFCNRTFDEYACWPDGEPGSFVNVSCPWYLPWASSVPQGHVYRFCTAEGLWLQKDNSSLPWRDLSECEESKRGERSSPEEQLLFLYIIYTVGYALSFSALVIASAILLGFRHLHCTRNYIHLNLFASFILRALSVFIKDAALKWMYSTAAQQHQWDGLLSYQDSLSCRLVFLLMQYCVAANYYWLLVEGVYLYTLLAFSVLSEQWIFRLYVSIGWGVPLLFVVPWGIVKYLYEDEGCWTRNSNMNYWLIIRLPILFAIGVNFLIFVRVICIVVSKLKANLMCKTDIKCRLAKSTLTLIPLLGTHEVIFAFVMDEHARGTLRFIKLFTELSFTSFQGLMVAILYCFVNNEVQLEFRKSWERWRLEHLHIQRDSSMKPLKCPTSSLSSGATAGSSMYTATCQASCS
Method in brief: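 Seeding at 200 cells/uL, 12 h culture, 24 hr compound treatment, then luciferase reagent and a luminescence read; cells are HEK293 stably expressing a constitutively active GLP-1R plus cAMP-responsive luciferase.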
Potency means the concentration at half of the fitted maximal effect; tags describe the fitted curve by direction and shape.

Potency, inactive:
O=C(C[C@@H]1C/C=C\C[C@H](NC(=O)OCC2c3ccccc3-c3ccccc32)C(=O)OC[C@@H]2CCCN2C1=O)NCCO
O=C(COc1ccc(Br)cc1)OCC(=O)c1ccc[nH]1
CCOc1ccc(N(CC)S(=O)(=O)N2CCCC(C(=O)Nc3ccc(NC(C)=O)cc3)C2)cc1 (centres undefined)
CC1(Cc2ccc(F)cc2)C(=O)Nc2ccc(-c3cccnc3)cc21 (centres undefined)
Oc1cnc2ccccc2c1CN1CCOCC1
COc1cc(OC)cc(C(=O)N2CCC(N3CCN(c4ccccc4)CC3)CC2)c1
COc1ccc(CN2C3CCC2CC(NC(=O)c2cccc(F)c2)C3)cc1 (centres undefined)
Oc1ccc(O)c(Cc2nc3ccccc3s2)c1
CC(C)c1ccc(Nc2cc(C(=O)NCCCN(C)Cc3ccccc3)c3ccccc3n2)cc1
Cc1cc(OCCN2CCCC2)ccc1[N+](=O)[O-]
O=C(c1cccs1)N1CCCC1
COc1ccc(Cc2c(-c3ccco3)nc3ccc(Cl)cn23)c(C)c1
CCC1CCCCN1C(=O)CSc1nnc(-c2ccc(Cl)cc2)o1 (centres undefined)
O=C(CCCN1CCC(C(O)c2ccc(F)cc2)CC1)c1ccc(F)cc1 (centres undefined)
Cn1c(=O)n(Cc2ccccc2Cl)c(=O)c2c1nc1n2CCN1c1ccccc1
OC(c1ccccc1)c1ncc(-c2ccccc2F)[nH]1 (centres undefined)
CC(C)Cc1nn2c(=O)cc(COC(=O)c3cccc(NC(=O)c4cccs4)c3)nc2s1

Potency, active:
O=C(NCCc1cn2ccccc2n1)c1cc(COc2ccc3ncccc3c2)on1 12.6 µM

Potency, inconclusive:
Cc1ccccc1/C=C\c1nc2ccccc2c(=O)n1Cc1ccccc1 7.08 µM [inhibitor, partial curve, poor fit]
CC(=O)c1c(C(C)=O)c(C)n(C(c2ccccc2)c2ccccc2)c1C 10 µM [inhibitor, partial curve]
COc1cccc(C(=O)Nc2cc(-c3ccccc3)nn2-c2ccccc2)c1 15.8 µM [inhibitor, single point]
COc1ccc(CNC(=O)CCCC(=O)Nc2cccc(Br)c2)cc1 8.91 µM [inhibitor, single point]
Cc1ccc(S(=O)(=O)N2CCCc3cc(NC(=O)c4ccc(F)c(F)c4)ccc32)cc1 28.2 µM [inhibitor, single point]
Cc1nc(C(F)(F)F)ccc1C(=O)N1CCC1(C)C(=O)NS(=O)(=O)c1ccc(C(C)(C)C)cc1 (centres undefined) 31.6 µM [inhibitor, single point]
CC(Sc1nnc(Nc2ccccc2)s1)C(=O)NC1CCCc2ccccc21 (centres undefined) 7.08 µM [inhibitor, partial curve, poor fit]
CNc1nc(N/N=C/c2cc3c(cc2[N+](=O)[O-])OCO3)nc(Nc2ccccc2)n1 28.2 µM [inhibitor, single point]
CC1CCN(C(=O)CN2c3ccc(Br)cc3-c3ccccc3S2(=O)=O)CC1 28.2 µM [inhibitor, single point]
Cc1nn(-c2ccccc2)c2c1CC(=O)Nc1ccccc1-2 1.12 µM [inhibitor, full curve, poor fit]
COc1ccc(N(CC(=O)Nc2ccccc2C(F)(F)F)C2=NC3CS(=O)(=O)CC3S2)cc1 (centres undefined) 8.91 µM [inhibitor, single point]
Cc1cccc(C)c1NC(=O)C1CCCN(CCCc2ccccc2)C1 (centres undefined) 22.4 µM [inhibitor, single point]
COC(=O)c1ccc(C2c3c(-c4ccc(Br)cc4)n[nH]c3C(=O)N2c2ccc(Cl)cc2)cc1 (centres undefined) 12.6 µM [inhibitor, single point]
CC(=O)Oc1ccccc1Cn1c(C)c(C(=O)NCc2ccc(F)cc2)sc1=O 10 µM [inhibitor, partial curve]
CC(=O)N1CCc2c(sc(NC(=O)C3CC3)c2-c2nc3ccccc3s2)C1 12.6 µM [inhibitor, single point]
CCOC(=O)C1CCN(CC(=O)c2c(C)[nH]c3cc(C)ccc23)CC1 28.2 µM [inhibitor, single point]
Cc1ccc(C2CCN(C(=S)NC(C)C)C2)cc1 (centres undefined) 8.91 µM [inhibitor, partial curve, poor fit]
C=CCc1cccc(CNc2nc3ccccc3n2C)c1O 28.2 µM [inhibitor, single point]
COc1ccccc1[C@H]1C(c2ccccc2)=NN(c2ccccc2)[C@@H]1CO 14.1 µM [inhibitor, partial curve, poor fit]
CC1CCCCN1C(=O)Cc1ccc(Cl)cc1 (centres undefined) 28.2 µM [inhibitor, single point]
C[C@@H]1CN([C@@H](C)CO)S(=O)(=O)c2ccc(C#Cc3cccc(F)c3)cc2O[C@H]1CN(C)S(=O)(=O)c1cn(C)cn1 28.2 µM [inhibitor, single point]
O=C(CN(c1cccc(Cl)c1)S(=O)(=O)c1ccc(Cl)cc1)NCc1ccccn1 10 µM [inhibitor, partial curve, poor fit]
Cc1ccc(C(=O)Nc2ccc(N3CCN(C)CC3)cc2)cc1C 7.94 µM [inhibitor, partial curve, poor fit]
COc1cccc2cc(C(=O)OC3CCN(C)CC3)c(=O)oc12 5.01 µM [inhibitor, partial curve]
CCCNCc1cc(OC)c(OCC(=O)NCCc2ccccc2)cc1Br 28.2 µM [inhibitor, single point]
O=C(O)c1cc(-c2ccc3ccccc3n2)nc2ccccc12 3.98 µM [inhibitor, partial curve]
O=C(O)CCn1cc(C2CC(c3ccccc3)=NN2c2ccccc2)c(-c2ccccc2)n1 (centres undefined) 3.16 µM [inhibitor, single point]
O=C(Nc1ccncc1)Nc1cc(Cl)ccc1Cl 31.6 µM [inhibitor, single point]
CCc1nn(CCCN2CCN(c3cccc(Cl)c3)CC2)c(=O)n1CCOc1ccccc1 31.6 µM [inhibitor, single point] and 7.94 µM [inhibitor, partial curve, poor fit]
CCOC(=O)C1(CCOc2ccccc2)CCN(Cc2cccc3nonc23)CC1 10 µM [inhibitor, partial curve, poor fit]
Cc1ccc2nc(-c3ccc(SCC(=O)N4CCc5ccccc54)nc3)[nH]c2c1 28.2 µM [inhibitor, single point]
O=C(Nc1ccc(F)c(Cl)c1)C1Cc2c(-c3ccc4c(c3)OCO4)ccnc2O1 (centres undefined) 28.2 µM [inhibitor, single point]
COCCN=c1scc(-c2cc(OC)ccc2OC)n1/N=C/c1c[nH]c2ccccc12 1.78 µM [inhibitor, full curve, poor fit]
CC(C)(C)C(=O)N1CCN(c2c(Cl)cccc2[N+](=O)[O-])CC1 3.98 µM [inhibitor, partial curve, poor fit]
COCC(=O)Nc1nc2n(n1)C(c1ccc(Cl)cc1)CC(c1ccc(OC)cc1)N2 (centres undefined) 25.1 µM [inhibitor, single point]
O=C(NC(Sc1ccc(Cl)cc1)C(=O)O)c1ccccc1 (centres undefined) 14.1 µM [inhibitor, partial curve, poor fit]
CCN(CC)c1ccc(NC(=O)CN2C(=O)NC3(CCc4ccccc43)C2=O)cc1 (centres undefined) 12.6 µM [inhibitor, partial curve, poor fit]
COc1ccc(Cl)cc1S(=O)(=O)N1CCC(C(=O)NCCC2=CCCCC2)CC1 28.2 µM [inhibitor, single point]
COc1cccc(-n2nnnc2SCC(=O)NCCc2ccccc2)c1 11.2 µM [inhibitor, single point]
C=CCN(c1ccccc1)S(=O)(=O)c1ccc2c(c1)oc(=O)n2C 10 µM [inhibitor, single point]
Cc1ccccc1Cn1c(=O)n(CC2CCC(C(=O)N3CCC(C)CC3)CC2)c(=O)c2sccc21 (centres undefined) 11.2 µM [inhibitor, partial curve, poor fit]
Cc1ccc(C(=O)NC2CCCCCC2)cc1S(=O)(=O)N1CCOCC1 11.2 µM [inhibitor, single point]
Cc1cc(C(=O)CSc2cccc[n+]2[O-])c(C)n1-c1ccccc1 0.891 µM [inhibitor, partial curve, poor fit]
CCCCn1c(N)c(N(CCC(C)C)C(=O)c2cccc(-n3cnnn3)c2)c(=O)[nH]c1=O 5.62 µM [inhibitor, full curve, poor fit]
COc1cc(-c2cc(C(=O)Nc3ccc(S(N)(=O)=O)cc3)c3ccccc3n2)cc(OC)c1OC 11.2 µM [inhibitor, partial curve, poor fit]
CCOC(=O)C1CCN(c2c([N+](=O)[O-])c(C(Cl)Cl)nn2-c2ccccc2)CC1 28.2 µM [inhibitor, single point]
